Experimental data published in the supplement of paper PMC11417369.
± gives the standard deviation of the averaged measurements. The list shows a part of the results.

test system: PfAP2-G AP2 domain (GST-tagged); experiment: gcPBM binding intensity (ln(normalized median fluorescence intensity)); higher = stronger DNA binding
In short: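 For binding intensity, the highest Masliner-normalised natural-log median intensity across replicate spots of either probe orientation was taken. Protein bound to the array was stained with Alexa488 anti-GST antibody and scanned at 488 nm. The protein, GST-tagged P. falciparum DNA-binding domains from E. coli at about 25 μg on average, had been applied for 1 h to an Agilent 4 × 180k array of primer-extended double-stranded 36-bp intergenic genomic probes and negative controls.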

| Sequence | gcPBM binding intensity (ln) |
| --- | --- |
| CAAGCACCCAGACACACACACACACCCACACCCACA [CACACA_site369] | 10.2 ± 0.37 |
| ATAAAAATAACATATAAACACACATATATATATATA [CACACA_site9267] | 9.97 ± 0.35 |
| AGTCATTAAATATAATGTACATGGAAAAACAGCTGA [XGTACX_site7944] | 11.1 ± 0.81 |
| GGAATATTTATACATACACACATATATTTATTTATA [CACACA_site6883] | 9.955 ± 0.049 |
| TATCATTTTGTATATAGTACATATATAAAATCGTTA [XGTACX_site3875] | 10.8 ± 0.66 |
| AAAAAAAATAAAAATAAAAATAAAAATAAAAATAAA [GTGCAC_negctrl_site437] | 9.46 ± 0.26 |
| ATGTAGACATAATGGGGTACAAAAAAAAAAAAAAAA [XGTACX_site881] | 11.6 ± 1.3 |
| TAAACATATAGAGGGGTGCAAAGAATTGTAAAATTT | 10.3 ± 0.37 |
| TATATATTGATATGCACACCTATGTATTGATGTATA [CACACA_site1073] | 10 ± 0.3 |
| GGTCTTTTCAACACACGTACATAAAAATATTATACA [XGTACX_site5360] | 11.5 ± 0.94 |
| TATTTTTTTCTTACTACACACATATAGATGCTTTCC [CACACA_site7825] | 9.965 ± 0.035 |
| AATAATAATAAATATACACACATCATACAATTAACA [CACACA_site3679] | 10.07 ± 0.092 |
| ATATTATTATAATATACATATATATATATAATATAT [CACACA_negctrl_site480] | 9.81 ± 0.18 |
| ACATAAATTTAATACACACACAAAGAAAAAAAAAAA [CACACA_site4088] | 10.1 ± 0.19 |
| TAATATAATATATATACACACAAGAAATACAAAACG [CACACA_site1378] | 10.3 ± 0.19 |
| TATATATATAATTAAAGTACATATAACCACAAAAAT [XGTACX_site7289] | 11.3 ± 0.79 |
| TATATCATTATATAAACACACAATATGTTTTTTATA [CACACA_site3781] | 9.62 ± 0.042 |
| TTTTTTTCTTTATTAGCACACATAATATTATATATG [CACACA_site8841] | 10.13 ± 0.092 |
| AACATTTGATAAGATACACACACAAGGAAAAAAATA [CACACA_site8004] | 10.4 ± 0.18 |
| TAGAATAATCTATAAACACACAAACACAACAAAAGA [CACACA_site7861] | 10.3 ± 0.32 |
| ACCTAAAAGGTATAATATATAAATAAAAAAAAAAAT [CACACA_negctrl_site134] | 9.77 ± 0.057 |
| TATTAATCTAATTCATAAAAAATGATCTATTTTGTT [CACACA_negctrl_site1035] | 9.535 ± 0.021 |

| Sequence | gcPBM binding intensity (ln) |
| --- | --- |
| AAAATGAACAGACACACACACATATTTATATTTATA [CACACA_site7182] | 9.98 ± 0.17 |
| CATATACATAAACACACACACACATAAATAAATATA [CACACA_site4864] | 10.1 ± 0.33 |
| AGATATTTTATAATTACACACATGAGGTTATTTGAA [CACACA_site1999] | 9.7 ± 0.11 |
| TTATAAAAATAATATCGTACAAATGACATAGATGAA [XGTACX_site2570] | 10.9 ± 0.47 |
| CAGCTCTTAAAAATTACACACATATACTCATATATA [CACACA_site5757] | 9.96 ± 0.15 |
| GAAAAGCAGATAAATGTGCACATATATGTTTGTATA | 10.26 ± 0.099 |
| TATAGGTATATATAAGTGCAATATATATGTATATAC [GTGCAC_site9427] | 10.1 ± 0.16 |
| TATTATTTTTTAAATTGTACAATAAATTATAAAAGG [XGTACX_site1162] | 11 ± 0.6 |
| ACATAAAATTGTTAAAAAATTGTATAAATAATACAT [XGTACX_negctrl_site557] | 9.85 ± 0.085 |
| GTATATATTCATATGGAAAATAAAGGAGAAAACAAG [TGCATGCA_negctrl_site220] | 10.4 ± 0.2 |
| ATGTATGTATAATATACACACTCACAAGCATTCAAA [CACACA_site4306] | 10.05 ± 0.071 |
| TTTGTTTTTTCTTTTTGTACATATACAAGATACGTA [XGTACX_site2309] | 11 ± 0.58 |
| TTTTGTAATTCTCTTCATATAATTTATATATATATA [CACACA_negctrl_site1825] | 9.98 ± 0.35 |
| GTGTTTTTTTTAGATTGTACATATATATATATATAT [XGTACX_site4562] | 11.1 ± 0.7 |
| ACCCAACATATGTGTACACAGAAAATAAATATAATA [CACACA_site5901] | 11.6 ± 0.94 |
| TAAACAACTTATAAATGTACACATATTTTAATTACC [XGTACX_site5409] | 11.5 ± 0.8 |
| ATATATATACATACATACCTATGTATATGTGTAATT [GTGCAC_negctrl_site50] | 9.73 ± 0.13 |
| ATGGTAGTGATTAAAAGTACACGTAATTGTAAAAAT [XGTACX_site387] | 11.7 ± 0.79 |
| TCATAGTCTTAATGACTACACACCTAACTATGCATG [CACACA_site1839] | 9.93 ± 0.042 |
| AATAAAAACTAAACATGTACGCACATATATATATAT [XGTACX_site8096] | 11.5 ± 0.97 |
| TAAGTGCATGAGATATGTACATATATAAAATATATA [XGTACX_site3294] | 11.1 ± 0.67 |
| TAAAAAAAAAAAAATACACACACACCGATATATATA [CACACA_site8498] | 9.86 ± 0.11 |

| Sequence | gcPBM binding intensity (ln) |
| --- | --- |
| ATTTGTTACACTAAATGTACATACATACATATATAT [XGTACX_site6175] | 11 ± 0.57 |
| TTATAAATTATAGGTACACACAAAAAAAAAAAGAAA [CACACA_site1327] | 11.4 ± 0.91 |
| AAACCACAAAATTTTTTATATATGACCAATACATAG [CACACA_negctrl_site277] | 10.7 ± 0.38 |
| ATTTATCAATAAAATGCACACACTGTAATATTATTA [CACACA_site3976] | 10.03 ± 0.071 |
| TTATAATAGTTAAATGTACACACTAACTACATGGAA [CACACA_site9070] | 11.5 ± 1 |
| ATAAACATATCAATATGTACATATTTTTGTTTGTAT [XGTACX_site7018] | 11.2 ± 0.7 |
| TTCCATATAATTACATGTACACATTTTGAATAATAT [XGTACX_site3692] | 11.6 ± 1 |
| AGCACAGACGGACACACACACATATATATATATATA [CACACA_site4341] | 11.4 ± 0.93 |
| ATATATATGTATGTATGTACATATTTGAATTTATTT [XGTACX_site8470] | 11.3 ± 0.83 |
| ACAGATATACATAAAAAAAAAATAATTTTACATATA [CACACA_negctrl_site929] | 9.765 ± 0.049 |
| GTGATTTAATTGTGTTGTACATATTTATAAATAAAA [XGTACX_site8966] | 11.4 ± 0.73 |
| AAAAAAAAAAGAAACACACACATTTGTATTTAATAT [CACACA_site5184] | 9.73 ± 0.2 |
| CCCTTTTCTAAATATTGTACGTATAAATTATATTAC [XGTACX_site7676] | 11.7 ± 0.88 |
| TTATTATTATATGAATGTACTTAAAAATACATTTTG [XGTACX_site2959] | 11 ± 0.71 |
| ATTCTATATACACGCACACACACTTATATATATATA [CACACA_site3322] | 10.5 ± 0.36 |
| TATGTGCCAAGACACACACACATATTTATATTTATA [CACACA_site6360] | 10.1 ± 0.18 |
| TATGAAAAATATCTTTGTACTTAGAAATATATACAC [XGTACX_site5393] | 11.1 ± 0.79 |
| GTACAGATAAATATTACACACATTTTCATTTTTAAC [CACACA_site5140] | 10.9 ± 0.54 |
| TTGTTCTTTTTTTTTTTATTTTTTAATTTGAAAAGA [CACACA_negctrl_site209] | 10.1 ± 0.38 |
| AAAAAGAAAAAACGAAGTACAATTATAAGATTATAT [XGTACX_site410] | 11.3 ± 0.86 |
| ATATTTATATACAAATGTACGCATATAATATATATA [XGTACX_site1232] | 11.4 ± 0.93 |
| AAACAAAAAAAAAAAAAAAAAAAAAAAAAAAAAAAA [GTGCAC_negctrl_site254] | 9.59 ± 0.25 |

| Sequence | gcPBM binding intensity (ln) |
| --- | --- |
| GATGCACTTTAAAAATGTACTTATACCTTTAATTGT [XGTACX_site6395] | 11.1 ± 0.65 |
| AAAGTAAAAATATACTGTACAAATTTTTTCCCCTCT [XGTACX_site171] | 11 ± 0.57 |
| AAAGAAAGCACATACACACACAAAAAAAAAAAAGAA [CACACA_site776] | 10 ± 0.28 |
| ATTTTTTAAAAAGTAACACACACTCTTATAAATAAC [CACACA_site7668] | 10.3 ± 0.16 |
| AGAGATTATAAAATATGTACTAAATATTAAATCTTA [XGTACX_site7050] | 10.8 ± 0.64 |
| AAAAAAATATTATAATATATATATATATATATATAT [GTGCAC_negctrl_site399] | 10.1 ± 0.91 |
| AATATATACATATATGTACACACATTACAGATGTAC [CACACA_site8227] | 11.5 ± 0.73 |
| ATAGAATCTGGTAGCTGTACGAGTCGTAGAGTGCAG [XGTACX_site2026] | 11.4 ± 0.47 |
| AGGACTAATATTTGAACACACATATAATATATACAT [CACACA_site3998] | 9.93 |
| GAATATAAACATATTACACACATCTATAGGTACATT [CACACA_site6983] | 11 ± 0.65 |
| GAAATGTATATTTTTACATGCAAATAAAATATATAA [TGCATGCA_site439] | 9.75 ± 0.014 |
| ATAACGACCTAGACGTGTACATACAAAGGAATGAAA [XGTACX_site4870] | 11.3 ± 0.71 |
| CATACACATAGACACACACACATATATACCTATATA [CACACA_site6644] | 10.1 ± 0.11 |
| TTTTTCTTGAATCGAAGTACTTAGGAGGGGATATTT [XGTACX_site2862] | 11 ± 0.47 |
| ACACAATATATATATTGTACATACACATATTTACTA [XGTACX_site1872] | 11.1 ± 0.83 |
| ATATAAACAAAGCAGTGCACGTAAACAAAACATATA [CACACA_negctrl_site1076] | 10.4 ± 0.18 |
| GTTTGATAACACCTACAAACTCTTTTTTTTTTTTTT [CACACA_negctrl_site1134] | 10 ± 0.13 |
| TATGTATAAATATTAACACACAAAAAAAAAAAAAAA [CACACA_site6938] | 9.67 ± 0.33 |
| AATAAGCAGAAACACACACACAAAAAAAAAAAAAAA [CACACA_site719] | 9.87 ± 0.51 |
| TACGAAAGGTAATATTGTACATTACAAAATTTTATA [XGTACX_site5512] | 10.7 ± 0.5 |
| TATTAAATTATATAGACACACATTATGTATATATAT [CACACA_site345] | 9.865 ± 0.049 |
| TATAGATACACTTTGTGTACATAAAAATTGTATTAA [XGTACX_site7137] | 11.4 ± 0.87 |
